# Measured values taken from PubChem BioAssay (EPA / NIEHS).
# Several values for one entry are separate records, joined by “and”; a condition that tells them apart may be missing. Equal values may be shown once. Inconclusive means that the source gave no clear call. Such entries were picked first, then a sample of the others. A potency beside an inconclusive call is a rough fit, not a confirmed value. Activity calls are given as the source filed them. Rule for the calls: active = hit-call score of the fitted dose curve at least 0.9, where 1 is the maximum; inconclusive = response in the unintended direction; inactive = score below 0.9.
# Test system: zebrafish Androgen Receptor (AR), gene 100005148
# Assay: ATG_zfAR_XSP2: Attagene TRANS-FACTORIAL Multi-Species (XSP2) HepG2 Assay for zebrafish Androgen Receptor (AR) (AID 2283825);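 note: hits raise reporter mRNA above DMSO so AC50 reflects agonist-type gain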
# Description: ATG_XSP2_multi-species_TRANS is a cell-based, multiplexed assay created by modifying the existing Attagene TRANS-FACTORIAL system to include a panel of nuclear receptors from some or all the following species: human (Homo sapiens), mouse (Mus musculus), frog (Xenopus laevis), zebrafish (Danio rerio), chicken (Gallus gallus), and turtle (Chrysemys picta). The ECOTOX-FACTORIAL format uses HepG2, a human liver cell line, with measurements taken at 24 hours after chemical dosing in a 24-well plate. Xsp2 included 3 nM 6-alpha-fluorotestosterone and 1.5 nM norgestrel to stimulate the androgen receptor.ATG_zfAR_XSP2 is one of 29 assay components measured or calculated from the ATG_XSP2_multi-species_TRANS assay. It is designed to make measurements of mRNA induction, a form of inducible reporter, as detected with fluorescence intensity signals by Reverse transcription polymerase chain reaction (RT-PCR) and Capillary electrophoresis technology.The assay endpoint ATG_zfAR_XSP2 was analyzed in the positive analysis fitting direction relative to DMSO as the negative control and baseline of activity. Using a type of inducible reporter, measures of mRNA for gain-of-signal activity can be used to understand the reporter gene at the transcription factor-level as they relate to the gene AR. Furthermore, this assay endpoint can be referred to as a primary readout, because this assay has produced multiple assay endpoints where this one serves a reporter gene function. To generalize the intended target to other relatable targets, this assay endpoint is annotated to the nuclear receptor intended target family, where the subfamily is steroidal.
# Human liver HepG2 cells are transiently transfected with multiple reporter transcription units (MRTUs) in 6-well plates using FuGene 6 reagent (Roche; 3 ml FuGene/1 mg DNA). The MRTU constructs are regulated by a cis-regulating element (promoter). […] A major difference between the CIS and TRANS system is that in CIS activities of endogenous TFs are measured, whereas the TRANS assay evaluates changes in activities of exogenous, chimeric NR-Gal4 proteins. […] At the end of 24 hour incubation, total RNA was isolated using TriZol reagent (Invitrogen). The isolated RNA is then reverse-transcribed using oligo(dT) primer and Mo-MLV reverse transcriptase (Invitrogen) with DNAse I (Ambion) treatment for 30 min. The one-tenth of the produced cDNA was amplified by PCR using Taq DNA polymerase (Invitrogen) and two reporter sequence-specific primers. The PCR products were fluorescently labeled by primer extension with 6-arboxyfluorescein (6-FAM) 5'-labeled reporter sequence-specific primer (2 min at 95 C, 20 s at 68 C and 10 min at 72 C) and these products were digested with 5U of HpaI (New England Biolabs) for 2h at 37 C. The fragments were purified using Qiaquick PCR columns (Qiagen), analyzed on an ABI 3130xL genetic analyzer (Applied Biosystems) with peak positions identified by using a set of X-rhodamine (ROX)-labeled MapMarker1000 molecular weight standards (BioVentures). The raw capillary electrophoresis data was processed using Attagraph software (Attagene).
SMILES,outcome,AC50
C#C[C@]1(O)CC[C@H]2[C@@H]3CCC4=CC(=O)CC[C@@H]4[C@H]3CC[C@@]21CC,inactive,–
N[C@@H](Cc1cc(I)c(Oc2ccc(O)c(I)c2)c(I)c1)C(=O)O,inactive,inconclusive: 23.8 µM
Oc1cc2ccccc2c2ccccc12,–,inconclusive: 33.4 µM and inconclusive: 8.92 µM
C#C[C@]1(O)CC[C@H]2[C@@H]3CCC4=CC(=O)CC[C@@H]4[C@H]3CC[C@@]21C,–,active: 1.84 µM
CCN(CC)CCOc1ccc(C(=C(Cl)c2ccccc2)c2ccccc2)cc1,–,inconclusive: 20.3 µM and inconclusive: 11.1 µM
O=C(c1ccc(O)cc1O)c1ccc(O)cc1O,–,inconclusive: 1.98 µM
CCCCCCCCCCCCc1ccc(O)cc1,inactive,inconclusive: 0.0663 µM
COc1ccc(-c2coc3cc(O)cc(O)c3c2=O)cc1,–,inconclusive: 190 nM and inconclusive: 5.42 µM
CC(C)CCCCCCc1ccc(O)cc1,–,inconclusive: 4.58 µM
O=c1cc(-c2ccc(O)cc2)oc2cc(O)cc(O)c12,–,inconclusive: 58.9 µM and inconclusive: 20.6 µM
CCC(=C(c1ccc(O)cc1)c1ccc(OCCN(C)C)cc1)c1ccccc1,–,inconclusive: 7.2 µM and inconclusive: 7.1 µM
Cc1c(C)c2c(c(C)c1O)CCC(C)(COc1ccc(CC3SC(=O)NC3=O)cc1)O2 (stereo not given),inactive,–
c1ccc(B(c2ccccc2)c2ccccc2)cc1,–,inconclusive: 54.4 µM and inconclusive: 76.5 µM
C[C@]12CC[C@H]3C(=CCc4cc(O)ccc43)[C@@H]1CCC2=O,–,inconclusive: 0.162 µM
O=C(OCCOCCOCCOC(=O)c1ccccc1)c1ccccc1,inactive,inconclusive: 100 µM
CCC(C)(C)C1CCC(O)CC1 (stereo not given),–,inconclusive: 17.9 µM

SMILES,outcome,AC50
CC(C)(c1ccc(O)cc1)c1ccc(O)cc1,–,inconclusive: 0.726 µM
CC1(C)C(C=C(Cl)Cl)C1C(=O)OCc1cccc(Oc2ccccc2)c1 (stereo not given),–,inconclusive: 100 µM
CN(C)C(=O)Nc1ccc(Cl)c(Cl)c1,–,inconclusive: 100 µM
CC(=O)S[C@@H]1CC2=CC(=O)CC[C@]2(C)[C@H]2CC[C@@]3(C)[C@@H](CC[C@@]34CCC(=O)O4)[C@H]12,–,inconclusive: 0.152 µM
CC[C@H](c1ccc(O)cc1)[C@@H](CC)c1ccc(O)cc1,–,inconclusive: 0.1 µM
CC(CCC(=O)O)(c1ccc(O)cc1)c1ccc(O)cc1,inactive,inconclusive: 0.0823 µM
N#Cc1ccc(C2CCCc3cncn32)cc1 (stereo not given),–,inconclusive: 50 µM and inconclusive: 13.1 µM
CSC(=O)c1cccc2nnsc12,inactive,inconclusive: 49.2 µM
O=P(OC(CCl)CCl)(OC(CCl)CCl)OC(CCl)CCl,–,inconclusive: 37 µM
O=c1c(-c2ccc(O)cc2)coc2cc(O)ccc12,inactive,inconclusive: 9.1 µM
CCCCCCCCOC(=O)c1ccc(O)cc1,inactive,inconclusive: 11.1 µM
C(=C(c1ccccc1)c1ccccc1)c1ccccc1,–,inconclusive: 0.0149 µM
Oc1ccc(-c2ccccc2)c(Cl)c1,–,inconclusive: 16.5 µM and inconclusive: 4.22 µM
C=CCOC(=O)c1ccccc1C(=O)OCC=C,inactive,inconclusive: 100 µM
O=C(O)Cc1cc(I)c(Oc2cc(I)c(O)c(I)c2)c(I)c1,–,inconclusive: 1.15 µM and inconclusive: 1 µM
O=C(c1ccccc1)c1ccc(O)cc1O,–,inconclusive: 10 µM
